In the supplement of paper PMC4604168 (melanoma cell lines):
The list shows a part of the results. Many values rest on one well or one pass, so single values are uncertain.

Assays:
Assay in all cases: cell count relative to DMSO control; melanoma cells; higher = more viable cells
Conditions in all cases: library dose: standard library concentration; 72 h
[1] = test system: G361
[2] = test system: IPC-298
[3] = test system: IST-MEL1
[4] = test system: LB2518-MEL
[5] = test system: LOXIMVI
[6] = test system: MEL-HO
[7] = test system: MZ2-MEL
[8] = test system: MeWo
[9] = test system: RPMI7951
[10] = test system: RVH-421
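Further: cells treated in 1,536-well plates, then fixed and DAPI-stained, with nuclei counted from automated high-throughput microscope images.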

SMILES | cell count [1] | cell count [2] | cell count [3] | cell count [4] | cell count [5] | cell count [6] | cell count [7] | cell count [8] | cell count [9] | cell count [10]
CC1(C)CCC(c2ccc(Cl)cc2)=C(CN2CCN(c3ccc(C(=O)NS(=O)(=O)c4ccc(N[C@H](CCN5CCOCC5)CSc5ccccc5)c(S(=O)(=O)C(F)(F)F)c4)cc3)CC2)C1 + Cc1cc(N2CCOCC2)cc2[nH]c(-c3c(NC[C@@H](O)c4cccc(Cl)c4)cc[nH]c3=O)nc12 [BMS536924] (first compound 2 µM, partner dose 1 µM) | 63% | 86.3% | 64.3% | 65% | 39.9% | 56.7% | 81.6% | 74.1% | 33.6% | 55.7%
Cc1ccc(Nc2nccc(N(C)c3ccc4c(C)n(C)nc4c3)n2)cc1S(N)(=O)=O [Pazopanib] + Oc1cc(-c2nc(-c3ccccc3)[nH]c2-c2ccncc2)ccc1Cl [L779450] (first compound 2 µM, partner dose 1 µM) | 54.2% | 69.1% | 73.3% | 75.2% | 68.6% | 74.3% | 83.5% | 74.9% | 66% | 67.3%
O=C(/C=C/c1cccnc1)NCCCCC1CCN(C(=O)c2ccccc2)CC1 + Cc1cc(N2CCOCC2)cc2[nH]c(-c3c(NC[C@@H](O)c4cccc(Cl)c4)cc[nH]c3=O)nc12 [BMS536924] (first compound 0.05 µM, partner dose 1 µM) | 1.03% | 26.7% | 57.5% | 54.5% | 60.5% | 32.6% | 42.4% | 72.5% | 93.3% | 16.5%
CC1(C)CCC(c2ccc(Cl)cc2)=C(CN2CCN(c3ccc(C(=O)NS(=O)(=O)c4ccc(N[C@H](CCN5CCOCC5)CSc5ccccc5)c(S(=O)(=O)C(F)(F)F)c4)cc3)CC2)C1 + Cc1nc(Nc2ncc(C(=O)Nc3c(C)cccc3Cl)s2)cc(N2CCN(CCO)CC2)n1 [dasatanib] (first compound 2 µM, partner dose 0.02 µM) | 63.8% | 87.6% | 48.2% | 76.7% | 17.1% | 43% | 42.2% | 73.7% | 18.5% | 47.5%
Cc1ccc(Nc2nccc(N(C)c3ccc4c(C)n(C)nc4c3)n2)cc1S(N)(=O)=O [Pazopanib] + CC(=O)c1c(C)c2cnc(Nc3ccc(N4CCNCC4)cn3)nc2n(C2CCCC2)c1=O [palbociclib] (first compound 2 µM, partner dose 0.2 µM) | 60.5% | 48.1% | 79.3% | 56.6% | 81% | 67.9% | 46.8% | 58% | 49.7% | 59.4%
O=C(/C=C/c1cccnc1)NCCCCC1CCN(C(=O)c2ccccc2)CC1 + O=S(=O)(c1ccccc1)N(CC(F)(F)F)c1ccc(C(O)(C(F)(F)F)C(F)(F)F)cc1 [T0901317] (first compound 0.05 µM, partner dose 7 µM) | 5.08% | 35.2% | 69.1% | 55.1% | 84.5% | 40% | 33.8% | 98.2% | 88.7% | 80.2%
O=C(/C=C/c1cccnc1)NCCCCC1CCN(C(=O)c2ccccc2)CC1 + COc1ccc(-c2ccc3c(N4CCOCC4)nc(N4C[C@@H](C)O[C@@H](C)C4)nc3n2)cc1CO [KU0063794] (first compound 0.05 µM, partner dose 0.1 µM) | 1.96% | 22.1% | 65.4% | 63.6% | 50.4% | 45% | 28.4% | 106% | 98% | 48.5%
Cc1ccc(Nc2nccc(N(C)c3ccc4c(C)n(C)nc4c3)n2)cc1S(N)(=O)=O [Pazopanib] + C=C(c1ccc(C(=O)O)cc1)c1cc2c(cc1C)C(C)(C)CCC2(C)C [Bexarotene] (first compound 2 µM, partner dose 10 µM) | 74.4% | 59.5% | 105% | 113% | 148% | 74.2% | 57.9% | 94.6% | 69.2% | 79.2%
CC1(C)CCC(c2ccc(Cl)cc2)=C(CN2CCN(c3ccc(C(=O)NS(=O)(=O)c4ccc(N[C@H](CCN5CCOCC5)CSc5ccccc5)c(S(=O)(=O)C(F)(F)F)c4)cc3)CC2)C1 + C[C@]1(c2nc3c(C(N)=O)cccc3[nH]2)CCCN1 [Veliparib] (first compound 2 µM, partner dose 7 µM) | 65.8% | 81.1% | 78.5% | 61.3% | 52.2% | 61.1% | 77% | 77.5% | 51% | 70.9%
O=C(/C=C/c1cccnc1)NCCCCC1CCN(C(=O)c2ccccc2)CC1 + COc1ccc(C2=N[C@@H](c3ccc(Cl)cc3)[C@@H](c3ccc(Cl)cc3)N2C(=O)N2CCNC(=O)C2)c(OC(C)C)c1 [Nutlin-3] (first compound 0.05 µM, partner dose 0.5 µM) | 5.05% | 27.1% | 78% | 54.2% | 84.4% | 44.3% | 35.4% | 105% | 141% | 23.8%
O=C(/C=C/c1cccnc1)NCCCCC1CCN(C(=O)c2ccccc2)CC1 + C=C(c1ccc(C(=O)O)cc1)c1cc2c(cc1C)C(C)(C)CCC2(C)C [Bexarotene] (first compound 0.05 µM, partner dose 10 µM) | 6.15% | 28.9% | 64.5% | 74.2% | 89.2% | 33.2% | 37.2% | 112% | 62.6% | 41.3%
O=C(/C=C/c1cccnc1)NCCCCC1CCN(C(=O)c2ccccc2)CC1 + Cc1cc([N+](=O)[O-])ccc1NS(=O)(=O)c1cc(Cl)ccc1Cl [FH535] (first compound 0.05 µM, partner dose 5 µM) | 4.71% | 37.5% | 47.2% | 61.4% | 50.6% | 36.6% | 45.8% | 99.5% | 109% | 37.7%
CC1(C)CCC(c2ccc(Cl)cc2)=C(CN2CCN(c3ccc(C(=O)NS(=O)(=O)c4ccc(N[C@H](CCN5CCOCC5)CSc5ccccc5)c(S(=O)(=O)C(F)(F)F)c4)cc3)CC2)C1 + CC1(C)NC(=O)N(c2ccc([N+](=O)[O-])c(C(F)(F)F)c2)C1=O [nilutamide] (first compound 2 µM, partner dose 5 µM) | 78.8% | 90.9% | 71% | 68.3% | 42.5% | 59.4% | 101% | 83.2% | 37.7% | 57.4%
O=C(/C=C/c1cccnc1)NCCCCC1CCN(C(=O)c2ccccc2)CC1 + Oc1cc(-c2nc(-c3ccccc3)[nH]c2-c2ccncc2)ccc1Cl [L779450] (first compound 0.05 µM, partner dose 1 µM) | 15.6% | 41.6% | 57.7% | 66.9% | 57.3% | 39.2% | 42.6% | 96.1% | 98.7% | 63.5%
O=C(/C=C/c1cccnc1)NCCCCC1CCN(C(=O)c2ccccc2)CC1 + Cn1nnc2c(C(N)=O)ncn2c1=O [temozolomide] (first compound 0.05 µM, partner dose 10 µM) | 2.97% | 33.2% | 50.8% | 65.2% | 140% | 38.1% | 37% | 103% | 101% | 38.6%
Cc1ccc(Nc2nccc(N(C)c3ccc4c(C)n(C)nc4c3)n2)cc1S(N)(=O)=O [Pazopanib] + Oc1nc(-c2ccc(C(F)(F)F)cc2)nc2c1CSCC2 [XAV939] (first compound 2 µM, partner dose 10 µM) | 71% | 63.1% | 82.1% | 59.1% | 68.3% | 75% | 64% | 76.5% | 59.5% | 82.8%
O=C(/C=C/c1cccnc1)NCCCCC1CCN(C(=O)c2ccccc2)CC1 + COc1cc(Nc2ncc(F)c(Nc3ccc4c(n3)NC(=O)C(C)(C)O4)n2)cc(OC)c1OC [Tamatinib] (first compound 0.05 µM, partner dose 2 µM) | 4.1% | 21.4% | 24.4% | 40.1% | 42.8% | 33.8% | 43.8% | 92.1% | 52.3% | 10.9%
Cc1ccc(Nc2nccc(N(C)c3ccc4c(C)n(C)nc4c3)n2)cc1S(N)(=O)=O [Pazopanib] + COc1ccc(-c2ccc3c(N4CCOCC4)nc(N4C[C@@H](C)O[C@@H](C)C4)nc3n2)cc1CO [KU0063794] (first compound 2 µM, partner dose 0.1 µM) | 69.2% | 57.6% | 91.8% | 57.5% | 70.3% | 75.8% | 74.8% | 78% | 65.2% | 69.9%
CC1(C)CCC(c2ccc(Cl)cc2)=C(CN2CCN(c3ccc(C(=O)NS(=O)(=O)c4ccc(N[C@H](CCN5CCOCC5)CSc5ccccc5)c(S(=O)(=O)C(F)(F)F)c4)cc3)CC2)C1 + O=C(O)c1ccc2c(c1)nc(Nc1cccc(Cl)c1)c1ccncc12 [CX4945] (first compound 2 µM, partner dose 2 µM) | 33.2% | 63.5% | 47.4% | 69.7% | 26.3% | 25.7% | 39.4% | 69.8% | 18.7% | 6.6%
O=C(/C=C/c1cccnc1)NCCCCC1CCN(C(=O)c2ccccc2)CC1 + COc1ccc(COc2ccc(Cc3cnc(N)nc3N)cc2OC)cc1 [GW2580] (first compound 0.05 µM, partner dose 5 µM) | 2.21% | 27.1% | 66.1% | 58.7% | 60.3% | 45.7% | 42.7% | 90.2% | 88% | 44%
CC1(C)CCC(c2ccc(Cl)cc2)=C(CN2CCN(c3ccc(C(=O)NS(=O)(=O)c4ccc(N[C@H](CCN5CCOCC5)CSc5ccccc5)c(S(=O)(=O)C(F)(F)F)c4)cc3)CC2)C1 + COc1ccc(Cl)c(Nc2nc3ccccc3nc2NS(=O)(=O)c2cccc(NC(=O)C(C)(C)N)c2)c1 [XL147] (first compound 2 µM, partner dose 4 µM) | 63.5% | 74.4% | 56.6% | 79% | 53% | 53.7% | 84.9% | 77.9% | 64.2% | 50.6%
